# Reference: the supplement of paper PMC8728848
# Some of the results follow.
# How the values were obtained:
# Test in all cases: glycan array binding signal (z-score within array); higher = stronger binding
# Details in all cases: glycan notation: IUPAC condensed, linker removed
# Gal6S(b1-4)Glc = molecular target: Gal6S(b1-4)Glc
# Method in brief: (§1)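 Glycan array binding is given as a within-array Z-score, which can be read as non-binding when negative. The arrays, 3228 of them, came from the Consortium for Functional Glycomics database and were retained only where the protein sequence was available. Z-scores were averaged across arrays of the same protein sequence at different concentrations or buffers and across linkers.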
# Gal6S(b1-4)Glc6S = molecular target: Gal6S(b1-4)Glc6S
# Method in brief: as §1
# Gal6S(b1-4)GlcNAc = molecular target: Gal6S(b1-4)GlcNAc
# Method in brief: as §1
# Gal6S(b1-4)GlcNAc6S = molecular target: Gal6S(b1-4)GlcNAc6S
# Method in brief: as §1
# GalNAc(a1-3)Gal = molecular target: GalNAc(a1-3)Gal
# Method in brief: as §1
# GalNAc(a1-3)GalNAc = molecular target: GalNAc(a1-3)GalNAc
# Method in brief: as §1
# [1] = molecular target: GalNAc(a1-3)GalNAc(b1-3)Gal(a1-4)Gal(b1-4)Glc
# Method in brief: as §1
# [2] = molecular target: GalNAc(a1-3)GalNAc(b1-3)Gal(a1-4)Gal(b1-4)GlcNAc
# Method in brief: as §1
# GalNAc(b1-3)Gal = molecular target: GalNAc(b1-3)Gal
# Method in brief: as §1
# [3] = molecular target: GalNAc(b1-3)Gal(a1-4)Gal(b1-4)GlcNAc
# Method in brief: as §1
# [4] = molecular target: GalNAc(b1-3)Gal(a1-4)Gal(b1-4)GlcNAc(b1-3)Gal(b1-4)Glc
# Method in brief: as §1
# [5] = molecular target: GalNAc(b1-3)Gal(a1-6)Gal(b1-4)Glc
# Method in brief: as §1
# GalNAc(b1-3)GalNAc = molecular target: GalNAc(b1-3)GalNAc
# Method in brief: as §1
# GalNAc(b1-3)GlcNAc = molecular target: GalNAc(b1-3)GlcNAc
# Method in brief: as §1
# GalNAc(b1-4)Gal(b1-4)Glc = molecular target: GalNAc(b1-4)Gal(b1-4)Glc
# Method in brief: as §1
# GalNAc(b1-4)GlcNAc = molecular target: GalNAc(b1-4)GlcNAc
# Method in brief: as §1
# [6] = molecular target: GalNAc(b1-4)GlcNAc(b1-2)Man
# Method in brief: as §1
# [7] = molecular target: GalNAc(b1-4)GlcNAc(b1-2)Man(a1-3)[GalNAc(b1-4)GlcNAc(b1-2)Man(a1-6)]Man(b1-4)GlcNAc(b1-4)GlcNAc
# Method in brief: as §1
# [8] = molecular target: GalNAc(b1-4)GlcNAc(b1-3)GalNAc(b1-4)GlcNAc
# Method in brief: as §1
# GalNAc(b1-4)GlcNAc6S = molecular target: GalNAc(b1-4)GlcNAc6S
# Method in brief: as §1
# GalNAc(b1-6)GalNAc = molecular target: GalNAc(b1-6)GalNAc
# Method in brief: as §1
# GalNAc3S(b1-4)GlcNAc = molecular target: GalNAc3S(b1-4)GlcNAc
# Method in brief: as §1
# GalNAc3S(b1-4)GlcNAc3S = molecular target: GalNAc3S(b1-4)GlcNAc3S
# Method in brief: as §1
# [9] = molecular target: GalNAc3S(b1-4)[Fuc(a1-3)]GlcNAc
# Method in brief: as §1
# GalNAc4S6S(b1-4)GlcNAc = molecular target: GalNAc4S6S(b1-4)GlcNAc
# Method in brief: as §1
# GalNAc6S(b1-4)GlcNAc = molecular target: GalNAc6S(b1-4)GlcNAc
# Method in brief: as §1
# Glc(a1-4)Glc = molecular target: Glc(a1-4)Glc
# Method in brief: as §1
# [10] = molecular target: Glc(a1-4)Glc(a1-4)Glc(a1-4)Glc
# Method in brief: as §1
# Glc(a1-6)Glc(a1-6)Glc = molecular target: Glc(a1-6)Glc(a1-6)Glc
# Method in brief: as §1
# [11] = molecular target: Glc(a1-6)Glc(a1-6)Glc(a1-6)Glc
# Method in brief: as §1
# Glc(b1-4)Glc = molecular target: Glc(b1-4)Glc
# Method in brief: as §1
# Glc(b1-6)Glc = molecular target: Glc(b1-6)Glc
# Method in brief: as §1
# GlcA(b1-3)Gal = molecular target: GlcA(b1-3)Gal
# Method in brief: as §1
# GlcA(b1-3)GlcNAc = molecular target: GlcA(b1-3)GlcNAc
# Method in brief: as §1
# GlcA(b1-6)Gal = molecular target: GlcA(b1-6)Gal
# Method in brief: as §1
# [12] = molecular target: GlcA3S(b1-3)Gal(b1-4)GlcNAc(b1-2)Man
# Method in brief: as §1
# [13] = molecular target: GlcA3S(b1-3)Gal(b1-4)GlcNAc(b1-3)Gal(b1-4)Glc
# Method in brief: as §1
# [14] = molecular target: GlcNAc(a1-3)Gal(b1-4)GlcNAc
# Method in brief: as §1
# [15] = molecular target: GlcNAc(a1-4)Gal(b1-3)GlcNAc
# Method in brief: as §1
# [16] = molecular target: GlcNAc(a1-4)Gal(b1-4)GalNAc
# Method in brief: as §1
# [17] = molecular target: GlcNAc(a1-4)Gal(b1-4)GlcNAc
# Method in brief: as §1
# [18] = molecular target: GlcNAc(a1-4)Gal(b1-4)GlcNAc(b1-3)Gal(b1-4)Glc
# Method in brief: as §1
# [19] = molecular target: GlcNAc(a1-4)Gal(b1-4)GlcNAc(b1-3)Gal(b1-4)GlcNAc
# Method in brief: as §1
# [20] = molecular target: GlcNAc(a1-4)Gal(b1-4)GlcNAc(b1-3)Gal(b1-4)GlcNAc(b1-3)Gal(b1-4)GlcNAc
# Method in brief: as §1
# [21] = molecular target: GlcNAc(a1-4)Gal(b1-4)GlcNAc(b1-3)Gal(b1-4)[Fuc(a1-3)]GlcNAc(b1-3)Gal(b1-4)[Fuc(a1-3)]GlcNAc
# Method in brief: as §1
binder,measurement,setting,value
LFA (Limax flavus) (protein) MSVLFLAASFLLLASFELVAAQGCPRQDPGDWIVIQRRLNADVNFYRGWADYKHGFGDLRCNFWLGNEKIHQLTSHGRYKLRVEFTFNNKSYFAEYSTFKILGEADKYKLQVGGYSGNAGDALTFHNGMAFSTNDRDNDADSIDCAKVYHGAWWYKTCHESNLNGKWGSKKYGEGLNWKAKTTFTATATSSLLKIKALK,glycan array binding signal (z-score),Gal6S(b1-4)Glc,0.135
same,glycan array binding signal (z-score),Gal6S(b1-4)Glc6S,-0.248
same,glycan array binding signal (z-score),Gal6S(b1-4)GlcNAc,-0.16
same,glycan array binding signal (z-score),Gal6S(b1-4)GlcNAc6S,-0.066
same,glycan array binding signal (z-score),GalNAc(a1-3)Gal,2.29
same,glycan array binding signal (z-score),GalNAc(a1-3)GalNAc,3.66
same,glycan array binding signal (z-score),[1],13.1
same,glycan array binding signal (z-score),[2],0.469
same,glycan array binding signal (z-score),GalNAc(b1-3)Gal,-0.195
same,glycan array binding signal (z-score),[3],-0.394
same,glycan array binding signal (z-score),[4],-0.37
same,glycan array binding signal (z-score),[5],-0.275
same,glycan array binding signal (z-score),GalNAc(b1-3)GalNAc,0.02
same,glycan array binding signal (z-score),GalNAc(b1-3)GlcNAc,-0.376
same,glycan array binding signal (z-score),GalNAc(b1-4)Gal(b1-4)Glc,-0.247
same,glycan array binding signal (z-score),GalNAc(b1-4)GlcNAc,-0.287
same,glycan array binding signal (z-score),[6],-0.249
same,glycan array binding signal (z-score),[7],0.256
same,glycan array binding signal (z-score),[8],-0.352
same,glycan array binding signal (z-score),GalNAc(b1-4)GlcNAc6S,-0.314
same,glycan array binding signal (z-score),GalNAc(b1-6)GalNAc,-0.295
same,glycan array binding signal (z-score),GalNAc3S(b1-4)GlcNAc,-0.277
same,glycan array binding signal (z-score),GalNAc3S(b1-4)GlcNAc3S,0.12
same,glycan array binding signal (z-score),[9],-0.245
same,glycan array binding signal (z-score),GalNAc4S6S(b1-4)GlcNAc,0.135
same,glycan array binding signal (z-score),GalNAc6S(b1-4)GlcNAc,-0.305
same,glycan array binding signal (z-score),Glc(a1-4)Glc,-0.279
same,glycan array binding signal (z-score),[10],-0.245
same,glycan array binding signal (z-score),Glc(a1-6)Glc(a1-6)Glc,-0.243
same,glycan array binding signal (z-score),[11],-0.194
same,glycan array binding signal (z-score),Glc(b1-4)Glc,-0.259
same,glycan array binding signal (z-score),Glc(b1-6)Glc,-0.222
same,glycan array binding signal (z-score),GlcA(b1-3)Gal,-0.143
same,glycan array binding signal (z-score),GlcA(b1-3)GlcNAc,-0.33
same,glycan array binding signal (z-score),GlcA(b1-6)Gal,-0.172
same,glycan array binding signal (z-score),[12],-0.073
same,glycan array binding signal (z-score),[13],-0.199
same,glycan array binding signal (z-score),[14],-0.145
same,glycan array binding signal (z-score),[15],-0.253
same,glycan array binding signal (z-score),[16],-0.191
same,glycan array binding signal (z-score),[17],-0.049
same,glycan array binding signal (z-score),[18],-0.062
same,glycan array binding signal (z-score),[19],-0.086
same,glycan array binding signal (z-score),[20],-0.098
same,glycan array binding signal (z-score),[21],-0.075
